The source gives no read counts; variants with many changes may rest on few reads.

B1: LINE1-mini (parent)
chain: GGCAGAGCUCAACACAGCGUGGCAAAGUGGCUGUGGCUAGACUGCC

In this data set the parent is B1. In words: self-cleavage, relative activity (ratio to wild type); higher = more cleavage; in vitro, sequencing; the parent is a self-cleaving ribozyme.
For the variant G2C C18A A24G A26G, the self-cleavage was determined as 0.01. Then G2C G19A U20A C37U, with 0.83; and G2C C15G C18A G27A G35U, with 0.01. As for G2C C31U G44U, the figure is 0.02; as for G2C C37U C45A, 0.23. As for G2C G30A U43C, the figure is 0.05; as for G2C C13U C23A A25U G27U U28G G30A G33U, 0.05; as for G2C G22A G40U C42U G44A, 0.13. For G2C C8G G17A, the self-cleavage came out at 0.47. As for G2C C23U U43A, the figure is 0.04. As for G2C G27A G30U A39C C46U, the figure is 0.03; as for G2C C10U G22U U34A C46U, 0.04. As for G2C G33C C37G A41C, the figure is 0.04; as for G2C C13U G22C G36A, 0.04. Regarding G2C C10U U34G U43C C45G C46G, the self-cleavage was 0.01. Turning to G2C G5A G21U C37U, the self-cleavage came to 0.03. As to G2C C15A U20A G33A, the self-cleavage was 0.02. As for G2C G19A G29U C46U, the figure is 0.26; as for G2C G5C G29U G30A C37G, 0.03. Regarding G2C A26U C31A C42G C45U, the self-cleavage came to 0.02. Regarding G2C G33U U34A G40A, the self-cleavage was 0.01. As for G2C G5U G7A A12G A25U G30U U34G, the figure is 0.1; as for G2C G19C G27C G35A, 0.07. As for G2C C10G A26C, the figure is 0.01; as for G2C C15A A24C G27A C37A, 0.03.

As to G2C G33U A39G, the self-cleavage stood at 0.02.

Regarding G2C G21U U32A, the self-cleavage was determined as 0.09. Then G2C G7A A14G U28C G36U A41G, with 0.58; and G2C A26C A41U U43C, with 0.05.

Turning to G2C C10A U20A A26G, the self-cleavage is 0.01.

For G2C G7U C13U G19C G27A G36A, the self-cleavage worked out at 0.04. Then G2C C18A G35U, with 0.07; and G2C C10A A24C G30C A41U C45U, with 0.01; and G2C C10A C18A, with 0.01. Then G2C C3U C18U, with 0.45; and G2C C10A A24C U34A C42G G44U, with 0.01; and G2C G22U C31G G33U, with 0.23.

As for G2C G7U C15A U20C G30U G35A, the self-cleavage was 0.03. Then G2C G21U C23U G35C, with 0.05. Then G2C C8U C18G G40U, with 0.04. G2C C3G G5U: the self-cleavage came to 0.13. Then G2C C10A U34C, with 0.01; and G2C G5A G19C G22A G36A, with 0.04; and G2C G7A G17C G27C G36A, with 0.2. For G2C C10A G30C, the self-cleavage stood at 0.03. As for G2C C31G C46A, the figure is 0.07; as for G2C G29C U34C, 0.1; as for G2C C3G C10U G19A G27A, 0.47.

Take G2C C23U G27U G29C U34G G35C: the self-cleavage came to 0.16. Regarding G2C G7A C15G G29U U43C, the self-cleavage worked out at 0.21. Then G2C G21C C31U U38C G44A C45A, with 0.27; and G2C C10U A14U G27U U28C G30C, with 0.05; and G2C C3A C10A U28G, with 0.04.

As to G2C C15G C23U A26G C42G, the self-cleavage amounted to 0. In the case of G2C C10G G17A U20C U32C A39G, the self-cleavage came out at 0. G2C G19A G21U G33U: the self-cleavage stood at 0.02. For the variant G2C G7U U28C G44C, the self-cleavage came out at 0.29. Then G2C C3A A24C U34C C37A U43C, with 0.01; and G2C G7U G19U C42U, with 0.04. Then G2C G7A A11U C18A G30A A41U C45G, with 0.01; and G2C C10A G21U G30U G40A, with 0; and G2C C3G G7U G17C A25C G35C C37U G40C, with 0.02. As for G2C G5U U20C G44C, the figure is 0.02; as for G2C C18U A25C C37A, 0.1. Regarding G2C C15A C18A C31G A39G G44U, the self-cleavage came out at 0.02.

As for G2C C10G G21U C46G, the self-cleavage amounted to 0.03. Then G2C G21U U32C C46U, with 0.1; and G2C G5A U9G G19A G22C G30C, with 0.08; and G2C C18A G30U G36U, with 0.02. Then G2C G17U U28C, with 0.04; and G2C G5U C10A, with 0.01; and G2C G5C C15A G17U, with 0.06. As for G2C C3U G7C C10A C31U C45U, the figure is 0.05; as for G2C A25G U34A G40A, 0.08. On to G2C G5C A25C G30C, for which the self-cleavage is 0.03. Then G2C G21U G40A, with 0.05; and G2C G35A G36A G40U C42G, with 0.03; and G2C G30A U43A G44U, with 0.19.

Regarding G2C G7U C10G, the self-cleavage was determined as 0.05.

On to G2C G7U C10A, for which the self-cleavage was 0.05. Then G2C C18A A41C, with 0; and G2C C10A A11G, with 0.01. Take G2C C10A C23G C37A: the self-cleavage came to 0.01. Then G2C C18G G40A C42U C45A, with 0.04. Consider G2C C13G A39G G40A U43A G44C, for which the self-cleavage was 0.27. Then G2C G7A G19C U20G G35U, with 0.77; and G2C G5C A12U U20A A26G C45U, with 0.01. As for G2C C10U C45A, the figure is 0.08; as for G2C G5C G7U C42U, 0.04.

Take G2C G5A A26U G29U: the self-cleavage amounted to 0.05. Then G2C C3U A26U U32C G44A C46A, with 0.1. Consider G2C C3A G5U C10A A16C C18G, for which the self-cleavage was 0.02.

With G2C C3U C15G C31A, the self-cleavage is 0.01. As for G2C G7C A24C G44U C46U, the figure is 0.07; as for G2C G19C U43G, 0; as for G2C C10A C13G C18A G27A G29C, 0.02. As for G2C C13U A25U G29C U32A, the self-cleavage was 0.02. Then G2C C15A C23U, with 0.02; and G2C G29U C45U, with 0.1. Then G2C C13U A24G G33A, with 0.07; and G2C G35C A41C, with 0.05; and G2C G30A C31U, with 0.04. Then G2C C18U G36U, with 0.02; and G2C A24U G33C, with 0.08.

For the variant G2C C18G A26C U43C, the self-cleavage is 0.04. In the case of G2C G7C G19C G27U U28G G36C, the self-cleavage came to 0.02.

With G2C C13G A14C A25U A26C G29U U43C, the self-cleavage was 0.02. As for G2C C31A U38C A41G, the figure is 0.02. Then G2C C8A G35C, with 0.12; and G2C C3A G5A C46G, with 0.08; and G2C G7C A39C U43C, with 0.21.

G2C G17U G33A U38A: the self-cleavage came out at 0.24. Then G2C G7U C8U G22A C42U, with 0.09. Take G2C G17U A26C U28G G35U C37A: the self-cleavage came to 0. As to G2C C8U C13U G30C, the self-cleavage is 0.01. Then G2C G22A G33U A41C, with 0.01; and G2C A24C G36C U43C, with 0.01; and G2C C8U G17A, with 0.11. As for G2C G7C U9G C15A G21U C42A, the figure is 0; as for G2C G5A C10G G35U G44A, 0.02; as for G2C G17C C23U, 0.1. Regarding G2C C13U A25U G27C G29C C31A, the self-cleavage came to 0.04. As for G2C A26C G29A G44U, the figure is 0.01. Then G2C C10A A11U G21A, with 0.01; and G2C G7A U34C, with 0.04. Then G2C G7A C8A G17A C37A A39G, with 0.08; and G2C G21U A24G, with 0.26; and G2C C15G C37A, with 0.02. As for G2C C8A C23G A39C, the self-cleavage stood at 0.08. As for G2C C3U G7A G19U G30A U32G A39U, the self-cleavage was determined as 0.15.

As for G2C G5U G27C, the self-cleavage was 0.01. As for G2C G33A U38A, the figure is 0.02; as for G2C G17C C23U U34A G35C G40C, 0.04. As for G2C A26U G44A, the figure is 0.15; as for G2C G27U G33A C46G, 0.21. As for G2C G19A G22C C42A, the figure is 0.04. For G2C C3A G27U G30U, the self-cleavage was found to be 0.43. As for G2C G19A U38C C46U, the self-cleavage came to 0.02. Then G2C C8A C31A C42U, with 0.09. As for G2C G5U U34C C46G, the figure is 0.03; as for G2C G22U U34A, 0.08; as for G2C A41C C46U, 0.02. As for G2C G5C G29U C45U, the figure is 0.04; as for G2C C3A U43A, 0.12. In the case of G2C C8U C10U C13A U28C G35U, the self-cleavage came out at 0.01. Then G2C G5U G40U, with 0.1; and G2C C10G A24C G27C A39U, with 0; and G2C A24U A26C, with 0.12. Then G2C C13G C15U G19U U34C G44A C46G, with 0.03; and G2C C3U C31A U34G C37A, with 0.02.

Turning to G2C C8U U9A A16C, the self-cleavage was found to be 0.06. As for G2C G5U U9G G22C U38C G40A C46A, the figure is 0.01; as for G2C G5C A6G U9A, 0.02. Then G2C C18G C31A, with 0.07; and G2C A25C U34G C46U, with 0.03; and G2C C10A G21U A26G, with 0.02. As for G2C C10A U20A A39G C46A, the figure is 0.

For G2C G21U A26C, the self-cleavage amounted to 0.04. As for G2C G7U A41G, the figure is 0.07; as for G2C G7A G21C G29U C45G, 0.03.

In the case of G2C G29U U34G, the self-cleavage was determined as 0.02. Consider G2C C10U U20G G35U, for which the self-cleavage is 0.04. As for G2C C8A C15U U38G, the figure is 1.05. Then G2C G17A U28C, with 0.03; and G2C G5C A41G, with 0.01.

With G2C C8G G22A U43A, the self-cleavage is 0.01. On to G2C C3G A25U C46A, for which the self-cleavage stood at 0.07.

The values above are taken from the RNAGym collection of RNA variant scans (doi:10.7554/elife.90254).
